The RNAGym collection of RNA variant scans (doi:10.7554/elife.90254)
Read counts are not given, so values of variants with three or more changes are uncertain.

B1: LINE1-mini (parent)
chain: GGCAGAGCUCAACACAGCGUGGCAAAGUGGCUGUGGCUAGACUGCC

Variants of: B1
Test: self-cleavage, relative activity (ratio to wild type); higher = more cleavage; in vitro, sequencing; the parent is a self-cleaving ribozyme

Row | Variant | self-cleavage
1 | G5C A11C G19A G30A | 0.02
2 | U20G G33U A41U U43A | 0.02
3 | A11C C18A U20C C23G C46U | 0.01
4 | C8U U20G G35U C37G | 0.01
5 | A4U U28A U43C | 0.11
6 | C3G A12U C15A A26G | 0.16
7 | G1U G29A C42U | 0.36
8 | G1A A4G G5A G7C G21U | 1.49
9 | C8G U9A C15U C18U A25U | 0.05
10 | A4C G27C U32C U34C G44U C45U | 0.02
11 | C10U C13A U38A G40U A41C | 0.06
12 | G2U C8A G35U | 0.03
13 | G7C A16U G44U | 0.02
14 | G5C C23A C37A | 0.03
15 | A14C U34C C37U U38C | 0.1
16 | C3G A16G G35U | 0.07
17 | C3U G7C G17A U20C | 0.01
18 | G5U U9A A14U G17U A24G G35U | 0.11
19 | G7A A14G A16U | 0.31
20 | C10U U34C C46A | 0.04
21 | C3U G35C G44A | 0.06
22 | A12C G33A U43A | 0.01
23 | A12U C18A G40A | 0.06
24 | A6U A14C A39C | 0.06

Row | Variant | self-cleavage
25 | A6U C15A G19A G27C | 0.05
26 | C31A G36A U38A A39G | 0.05
27 | A16G G29A G30A C31U | 0.08
28 | G2A C15U G21A U34G | 0.06
29 | A14G C23U G40C C42G | 0.09
30 | U9C A11C G19U U43C | 0.01
31 | G17U U32G C42U | 0.04
32 | G22A C37A C46G | 0.04
33 | A6U G19U G36C U43C | 0.06
34 | A12U G30U G33U | 0.02
35 | G5A U28G G30C U32C C42U | 0.02
36 | A6G U32G G40C | 0.07
37 | G22C A25G U28G U32C | 0.11
38 | C31U A39G G44C | 0.01
39 | A6G C13U A14U | 0.03
40 | U9C A14G C18A G21A C31A | 0.04
41 | A4U A6C C8U C42U G44U | 0.7
42 | G2U C8A C15A G33A | 0.12
43 | G5U U9C C13A G36C G40U C42A | 0.01
44 | G7U C23G G33U | 0.01
45 | C18G U20A A26C G29C C45A | 0.14
46 | A11U G17A G22U C23U A39G A41C | 0.01
47 | U9A G19C A24C G30A U32A C45G | 0.05
48 | G5A A12G U20C G36U | 0.05

Row | Variant | self-cleavage
49 | U9C G22C C37A A41U | 0.08
50 | C13A C18G U34A C42A | 0.03
51 | C3U A16U C23A | 0.12
52 | C10U G29C C31U U38A | 0.03
53 | G5A C8U C15G G22U G33U G36A G44C | 0.22
54 | C3A C15U G17C | 0.02
55 | A12G G17C U20A C23U A25C U28C G33C G40U | 0.05
56 | A24U G35U C42G | 0.02
57 | C3U G27A G44A | 1.03
58 | C18A C23G G36A | 0.24
59 | A4G A11U G36C | 0.02
60 | C18A G21A C31U G40A | 0
61 | G17U U28C A41U | 0.22
62 | C3U A4U C10U G44U | 0.04
63 | G2A A4G A12U | 0.33
64 | C3U G5C C8G A14C G40U | 0.07
65 | C3A G7C U34G | 0.1
66 | U9A U28C G29U C37A | 0.08
67 | A4G C8U U9G C13A C23G C46A | 0.11
68 | G2A A4G A11U C15A U34G | 0.01
69 | C13G C15A G17A U20A | 0.02
70 | A6U G17A C23G G27U | 0.09
71 | G1C C10A G40C C46A | 0.04
72 | U9G A25G G27A U32G | 0.05

Row | Variant | self-cleavage
73 | C10A A12C A25G | 0
74 | A14G A24C G29U G40C | 0.01
75 | A11C A25G U32G C37A G44A | 0.02
76 | G22U G27U G29C | 0.34
77 | C8A C15A C31U | 0.23
78 | A14G U32G G35C U43A | 0.03
79 | G7A G21A G36A U38G | 0.01
80 | G5U C8G C15U U32A G35A G36A G40C | 0.03
81 | G1U C8A A12U U20A C23U G35A A39U | 0.04
82 | G17A U20A C31A G33C | 0.22
83 | G5A A24U U43A | 0.11
84 | C10U G40C C46G | 0.03
85 | C23U A26U A39G G44C | 0.06
86 | C10U U20A G21C C42U | 0.03
87 | G2U G22U U28G C31A C45U | 0.28
88 | A16C U34G U43C C46A | 0.02
89 | G22U U32C C46A | 0.33
90 | G7C C8U C10U | 0.05
91 | C10A A24U G29A A39C | 0.05
92 | A25C G27A C31U G35A U43C | 0.06
93 | G19U G22A C31A U32G C45A | 0.04
94 | G19C U28G C37A | 0.01
95 | G2C A6U U38G A39C A41U C45U | 0.54
96 | G1C A4U C8A C13G G33U G40A G44A | 0.04

Row | Variant | self-cleavage
97 | G17U U28C U34A C45U | 0.03
98 | G5U A16U C23G U28A G36U | 0.03
99 | A6U G17A G40U | 0.02
100 | U20G G33U C42U | 0.07
101 | G27U C42G U43C | 0.01
102 | G5U A14U C31U | 0.01
103 | A4G C15G G33U U43C | 0.04
104 | G36C C42G U43G | 0.06
105 | C13A C15U G40U | 0.3
106 | U9C G29U A41U C45U | 0.03
107 | G22C G33A C37A U43C | 0.06
108 | G5A C13A A26C U32C | 0.16
109 | C3U A16U A24C | 0.03
110 | G17U G21A A39C | 0.06
111 | G7U G21U A41U C45G | 0.08
112 | C15U C31G C42A | 0
113 | C18A G30C U34C | 0.01
114 | A14G G21U C23U | 0.69
115 | C15U A25C A26G | 1.51
116 | G21U A25U A41U | 1.65
117 | G2C G19U G36U C42G C45G | 0.08
118 | C10A C18U U32C G44U | 0
119 | G21U C37U C46U | 0.01
120 | A6U G27U G35A G44C | 0.4

Row | Variant | self-cleavage
121 | A4U A11C G17U | 0.05
122 | A6G C13U A16C | 0.04
123 | U9A G27A G35U | 0.46
124 | C8A A14C A39U | 0.04
125 | A16C C23A G30C A39U G44C | 0
126 | G2U A4U A26C | 0.03
127 | G2U A4C A26C C42U | 0.03
128 | C3G C10U A25G G33C C45A | 0.03
129 | A14U C18A U28A | 0.01
130 | A12U A16C C23A G33U | 0.01
131 | A4U C13U A39C C45U | 0.2
132 | C10A C18A A26G G35A G40A | 0.01
133 | C13U G29U G36A C37G | 0.03
134 | A6G C15A G17U A24U A26C U34A A41C | 0.03
135 | G22C A25C U34C G40U C46U | 0.1
136 | G22U U32C C37A U38C A41U | 0.03
137 | U20C C42U C45G | 0.04
138 | C13G C31A G40U | 0.04
139 | U43A C45A C46U | 0.36
140 | G2U G7A A12U A16C | 0.03
141 | A4C A12U A26C U43A C46A | 0.03
142 | U20G G22U G36C | 0.15
143 | G2U C10A G27A C31U | 0.01
144 | C13A A16G G19C G33U G40U | 0.01

Row | Variant | self-cleavage
145 | C8A A11C C18U A26U C45G | 0.01
146 | C18U G29C G33C U43G | 0
147 | G1U G17A G29A G30U U32C C45U | 0.01
148 | A26G G36A A39U | 0.35
149 | C8A U20A U28A | 0
150 | G17A A26U A39U | 0.02
151 | C8U A14U G17A U32A | 0.04
152 | U9G C10A G22A C23G | 0.01
153 | G17U C31U U34C C37A | 0.04
154 | C3U G29U G40A | 0.11
155 | A24U G33C U34A G36U | 0.1
156 | A16C G19A A26U | 0.02
157 | G17A A39G G40U | 0.01
158 | C18U G33U G40U | 0.02
159 | G27U G29U G35C C37U | 0.01
160 | A12U C13G C46A | 0.3
161 | C8A C13A C45U | 0.53
162 | A14G G21C A25U | 1.25
163 | G1C G2U U9G | 0.04
164 | C15U C18A U34C | 0.13
165 | C13U G21U A41U | 0.2
166 | G2U C3U A26G | 1.27
167 | C18A G36A A41U | 0.3
